Measured values from PubChem BioAssay AID504832 (National Center for Advancing Translational Sciences (NCATS), 2011).
Among all 310,000 compounds or so, about 18,000 (5.8%) were called active. The shares of active, inactive and inconclusive entries below differ from those in the screen. Calls come from the whole dose curve; as a rule, active = well fitted inhibition curve with a large enough effect; inconclusive = small, poorly fitted or top-dose-only effect, or another doubt; inactive = no such curve, though single readings can be large or run the other way. No potency is given beside an inconclusive call; the fits are too rough.

assay: Primary qHTS for delayed death inhibitors of the malarial parasite plastid, 48 hour incubation; details: P. falciparum luciferase growth in erythrocytes; series mostly up to 28.7 µM; activity change, negative = inhibition: at the top concentration
Outline: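 Luminescence readout; reporter = integrated firefly luciferase in P. falciparum. RBC culture at 2% hematocrit, 0.1% parasitemia final, 37 C/5% CO2; decreased signal taken as growth inhibition.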
% is set by controls: 0 for no effect and ±100 for the full control effect; potency is the fitted concentration of half-maximal effect; tags give direction and shape of the fitted curve.

Q: With `COc1ccc(C(CNC(=O)c2oc3cc(C)c(Cl)cc3c2C)N2CCCCC2)cc1` (configuration not stated) as the compound, how does the Potency read?
A: active: 5.22 µM

Q: For `Cc1cccc2[nH]c(CCNC(=O)C3CCC(=O)N(CCc4cccc(F)c4)C3)nc12` (configuration not stated), which “activity change, negative = inhibition” value is on record?
A: inactive: -18.5%

Q: Which Potency does the source give for `C/C(=N/NC(=O)c1cc2ccccc2cc1O)c1ccco1` here?
A: inconclusive [inhibitor, single point]

Q: For `CC(C)(C)c1ccc(-n2ncc3c2CCCC3NC(=O)CCN2CCCCC2=O)cc1` (configuration not stated), which Potency is on record?
A: inconclusive [inhibitor, single point]

Q: Which Potency does the source give for `CCOC(=O)/C=C1\CN(CCC(C)C)S(=O)(=O)c2ccccc21` here?
A: inconclusive [inhibitor, partial curve, poor fit]

Q: For `N#Cc1cc2c(nc1SCc1cccc(Cl)c1)CCCCC2`, which Potency is on record?
A: inconclusive [inhibitor, partial curve]

Q: Which “activity change, negative = inhibition” value does the source give for `COc1cccc2c(=O)n(CC(=O)Nc3ccccc3F)ccc12` here?
A: inactive: 43.4%

Q: With `C/C(CC(=O)Nc1ccccc1C)=N\NC(=O)Cc1csc(N)n1` as the compound, how does the “activity change, negative = inhibition” value read?
A: inactive: 10.2%

Q: For `Oc1c(Cl)cc(CN2CCCCC2)c2cccnc12`, which Potency is on record?
A: active: 3.7 µM

Q: For `COc1ccc(-c2csc(NC(=O)CSCc3c(C)noc3C)n2)cc1OC`, which Potency is on record?
A: inconclusive [inhibitor, partial curve]

Q: Which “activity change, negative = inhibition” value does the source give for `COc1ccc(-n2ncc(C(C)NS(=O)(=O)c3ccc(C)s3)c2C)cc1` (configuration not stated) here?
A: inactive: 6.74%

Q: Which “activity change, negative = inhibition” value does the source give for `Cc1c(O)ccc2c(CC(=O)N[C@@H](Cc3ccc(O)cc3)C(=O)O)cc(=O)oc12` here?
A: inactive: -1.87%

Q: For `Cc1ccc(-c2nnc3ccc(SCC(=O)N4CCCc5ccccc54)nn23)cc1`, which Potency is on record?
A: inconclusive [inhibitor, single point]

Q: Which “activity change, negative = inhibition” value does the source give for `CC1CN(c2ncnc3c2oc2ccccc23)CC(C)O1` (configuration not stated) here?
A: inactive: -21.4%

Q: For `CCCCN(CC)CCCNC(=O)c1cc2c(=O)n(CC)c3ccccc3c2s1`, which activity change, negative = inhibition is on record?
A: inactive: -20.7% [at 0.00184 µM]

Q: With `Cc1cccc(N(CC(=O)Nc2cccnc2)S(C)(=O)=O)c1` as the compound, how does the “activity change, negative = inhibition” value read?
A: inactive: 96.4%

Q: For `CC(=O)N1c2ccc(S(=O)(=O)NCc3ccco3)cc2CC1C` (configuration not stated), which “activity change, negative = inhibition” value is on record?
A: inactive: 18.8%

Q: With `O=C(NC(=S)Nc1ccc(CN2CCOCC2)cc1)c1ccccc1[N+](=O)[O-]` as the compound, how does the “activity change, negative = inhibition” value read?
A: inactive: -11.8%

Q: With `Cc1ccc(S(=O)(=O)CCC(=O)Nc2nccs2)cc1` as the compound, how does the Potency read?
A: inconclusive [inhibitor, single point]

Q: Which Potency does the source give for `CCOC(=O)/C(=N\Nc1cccc(C(F)(F)F)c1)N1CCOCC1` here?
A: inconclusive [inhibitor, single point]

Q: With `Cc1sc2ncn(CC(=O)N3CCN(c4ccccn4)CC3)c(=O)c2c1S(=O)(=O)N1CCCCC1` as the compound, how does the “activity change, negative = inhibition” value read?
A: inactive: -21.4%

Q: For `Cn1c(N)c(C(=O)COC(=O)COc2ccccc2C#N)c(=O)n(C)c1=O`, which Potency is on record?
A: inconclusive [inhibitor, partial curve, poor fit]
